Laboratory results: ChEMBL document CHEMBL5050857, “Mettl3 modulators” (2021)

How the values were obtained:
[1] = molecular target: N6-adenosine-methyltransferase catalytic subunit (Homo sapiens, UniProt Q86U44); experiment: Inhibition of METTL3 (unknown origin) using UCUGGACUAAA-biotin and 3H-SAM as substrates preincubated for 5 mins followed by substrate addition incubated for 30 mins by TopCount scintillation counting method
MOLM-13 [2] = experiment: Antiproliferative activity against human MOLM-13 cells after 96 hrs by Cell Titer-Glo assay; format: functional, cell-based; conditions: MOLM-13, 96 h
MOLM-13 [3] = experiment: Antiproliferative activity against human MOLM-13 cells after 48 hrs by Cell Titer-Glo assay; format: functional, cell-based; conditions: MOLM-13, 48 h

Sequence of UniProt Q86U44 (Q86U44 whole entry): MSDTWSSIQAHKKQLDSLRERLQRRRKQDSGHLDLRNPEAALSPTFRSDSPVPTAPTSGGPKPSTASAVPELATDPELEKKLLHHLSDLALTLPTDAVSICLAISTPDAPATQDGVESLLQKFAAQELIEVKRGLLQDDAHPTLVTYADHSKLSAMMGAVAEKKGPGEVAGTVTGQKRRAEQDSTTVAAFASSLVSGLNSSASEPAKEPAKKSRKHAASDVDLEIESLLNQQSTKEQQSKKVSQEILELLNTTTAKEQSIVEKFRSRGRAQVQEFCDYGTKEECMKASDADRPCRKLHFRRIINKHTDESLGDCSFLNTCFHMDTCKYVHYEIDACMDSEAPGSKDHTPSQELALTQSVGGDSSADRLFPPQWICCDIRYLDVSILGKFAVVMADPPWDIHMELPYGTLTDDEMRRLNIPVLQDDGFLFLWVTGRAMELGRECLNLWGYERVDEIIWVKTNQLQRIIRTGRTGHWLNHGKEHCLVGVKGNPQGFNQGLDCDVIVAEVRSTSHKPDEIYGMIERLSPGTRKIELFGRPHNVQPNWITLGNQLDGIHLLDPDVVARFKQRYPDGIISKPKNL

Row | Compound | IC50 [1] | IC50 (MOLM-13 [2]) | IC50 (MOLM-13 [3])
1 | CCNc1ccc2ccc(OC[C@H]3O[C@@H](n4cc(-c5ccn(C)n5)c5c(N)ncnc54)[C@@H](F)[C@@H]3O)cc2n1 | < 10 nM | < 1000 nM | 
2 | Cn1ccc(-c2cn([C@@H]3O[C@H](COc4ccc5ccc(C6CCC6)nc5c4)[C@@H](O)[C@@H]3F)c3ncnc(N)c23)n1 | < 10 nM | 1000 nM | 1000 nM
3 | Nc1ncnc2c1c(C1CCCC1)cn2[C@@H]1O[C@H](COc2ccc3ccc(N4CCC4)nc3c2)[C@@H](O)[C@@H]1F | < 10 nM | 1000 nM | 
4 | Nc1ccc2cc(CC[C@H]3C[C@@H](n4ccc5c(N)ncnc54)[C@H](O)[C@@H]3O)ccc2n1 | ≤ 1000 nM | 1000 nM | 
5 | CNc1ccc2ccc(OC[C@H]3O[C@@H](n4cc(-c5ccn(C6CCC6)n5)c5c(N)ncnc54)[C@H](O)[C@@H]3O)cc2n1 | < 10 nM |  | 1000 nM
6 | CNc1ccc2ccc(OC[C@H]3O[C@@H](n4cc(-c5ccc(C)cn5)c5c(N)ncnc54)[C@@H](F)[C@@H]3O)cc2n1 | < 10 nM |  | < 1000 nM
7 | CNc1ccc2ccc(OC[C@H]3O[C@@H](n4cc(-c5cccc(C)n5)c5c(N)ncnc54)[C@@H](F)[C@@H]3O)cc2n1 | < 10 nM |  | 1000 nM
8 | CCc1cc(N2CCOCC2)c2ccc(OC[C@H]3O[C@@H](n4cc(-c5ccn(C)n5)c5c(N)ncnc54)[C@@H](F)[C@@H]3O)cc2n1 | < 10 nM | < 1000 nM | 1000 nM
9 | CNc1ccc2ccc(OC[C@H]3O[C@@H](n4cc(-c5ccn(C6COC6)n5)c5c(N)ncnc54)[C@@H](F)[C@@H]3O)cc2n1 | < 10 nM |  | 1000 nM
10 | Nc1ncnc2c1c(CO)cn2[C@@H]1O[C@H](COc2ccc3ccc(N4CCC4)nc3c2)[C@@H](O)[C@@H]1F | < 10 nM | 1000 nM | 1000 nM
11 | Cn1ccc(-c2cn([C@@H]3O[C@H](COc4ccc5ccc(NC6CCC6)nc5c4)[C@@H](O)[C@@H]3F)c3ncnc(N)c23)n1 | < 10 nM | < 1000 nM | < 1000 nM
12 | COCCN(C)C(=O)c1cn([C@@H]2O[C@H](COc3ccc4ccc(N5CCC5)nc4c3)[C@@H](O)[C@@H]2F)c2ncnc(N)c12 |  | ≥ 10000 nM | 
13 | Nc1ncnc2c1ccn2[C@H]1C[C@H](O)[C@@H](COc2ccc3ccc(N4CCC4)nc3c2)O1 | < 10 nM | 1000 nM | ≥ 10000 nM
14 | Nc1ncnc2c1c([C@@H]1CCCO1)cn2[C@@H]1O[C@H](COc2ccc3ccc(N4CCC4)nc3c2)[C@@H](O)[C@@H]1F |  | < 1000 nM | 1000 nM
15 | Cn1ccc(-c2cn([C@@H]3O[C@H](CCc4ccc5cnc(N6CCC6)nc5c4)[C@@H](O)[C@@H]3F)c3ncnc(N)c23)n1 | < 10 nM | 1000 nM | 
16 | Nc1ncnc2c1c(-n1cccn1)cn2[C@@H]1O[C@H](COc2ccc3ccc(N4CCC4)nc3c2)[C@@H](O)[C@@H]1F |  | < 1000 nM | < 1000 nM
17 | CNc1ccc2ccc(OC[C@H]3O[C@@H](n4cc(F)c5c(N)ncnc54)[C@@H](F)[C@@H]3O)cc2n1 | < 10 nM |  | 1000 nM
18 | CNc1ccc2ccc(OC[C@H]3O[C@@H](n4cc(-c5ccn(C(C)C)n5)c5c(N)ncnc54)[C@@H](F)[C@@H]3O)cc2n1 | < 10 nM | < 1000 nM | 
19 | Nc1ncnc2c1c(-n1ccc(C(F)(F)F)n1)cn2[C@@H]1O[C@H](COc2ccc3ccc(N4CCC4)nc3c2)[C@@H](O)[C@@H]1F | < 10 nM | 1000 nM | 1000 nM
20 | Cn1ccc(-c2cn([C@@H]3C[C@H](CCc4ccc5ccc(N6CCC6)nc5c4)[C@@H](O)[C@@H]3F)c3ncnc(N)c23)n1 | < 10 nM | < 1000 nM | 
21 | CNc1ccc2ccc(OC[C@H]3O[C@@H](n4cc(CC5CC5)c5c(N)ncnc54)[C@H](O)[C@@H]3O)cc2n1 | < 10 nM |  | 1000 nM
22 | Cn1ccc(-c2cn([C@H]3C[C@H](O)[C@@H](COc4ccc5ccc(N6CCC6)nc5c4)O3)c3ncnc(N)c23)n1 | < 10 nM | < 1000 nM | 1000 nM

Row | Compound | IC50 [1] | IC50 (MOLM-13 [2]) | IC50 (MOLM-13 [3])
23 | CNc1ccc2ccc(OC[C@H]3O[C@@H](n4cc(-c5ccc(C)o5)c5c(N)ncnc54)[C@@H](F)[C@@H]3O)cc2n1 |  | < 1000 nM | < 1000 nM
24 | Cn1ccc(-c2cn([C@@H]3O[C@H](COc4ccc5ccc(N6CC(N)C6)nc5c4)[C@@H](O)[C@@H]3F)c3ncnc(N)c23)n1 | < 10 nM | < 1000 nM | < 1000 nM
25 | Nc1ncnc2c1ccn2[C@H]1C[C@H](O)[C@@H](COc2ccc3ccc(NC4CC4)nc3c2)O1 |  | ≥ 10000 nM | ≥ 10000 nM
26 | C=CCc1cn([C@@H]2O[C@H](COc3ccc4ccc(NC)nc4c3)[C@@H](O)[C@H]2O)c2ncnc(N)c12 | < 10 nM |  | < 1000 nM
27 | Nc1ncnc2c1ccn2[C@@H]1C[C@H](CCc2ccc3[nH]cnc3c2)[C@@H](O)[C@H]1O | ≥ 1000 nM |  | 
28 | CNC(=O)Nc1cccc(CC[C@H]2C[C@@H](n3ccc4c(N)ncnc43)[C@H](O)[C@@H]2O)c1 | ≥ 1000 nM |  | 
29 | CNc1ccc2cc(CC[C@H]3C[C@@H](n4ccc5c(N)ncnc54)[C@H](O)[C@@H]3O)ccc2n1 | ≤ 1000 nM | 1000 nM | 
30 | Nc1ncnc2c1ccn2[C@@H]1O[C@H](COc2ccc3ccc(N4CCOCC4)nc3c2)[C@@H](O)[C@H]1O | ≤ 100 nM |  | 
31 | Nc1ccc2ccc(OC[C@H]3O[C@@H](n4ccc5c(NCCc6ccccc6)ncnc54)[C@H](O)[C@@H]3O)cc2n1 | ≤ 1000 nM |  | 
32 | CN(C[C@H]1C[C@@H](n2ccc3c(N)ncnc32)[C@H](O)[C@@H]1O)c1ccc2ccc(N)nc2c1 | ≥ 1000 nM |  | 
33 | Nc1ncnc2c1ccn2[C@@H]1C[C@H](CCc2ccc3nccnc3c2)[C@@H](O)[C@H]1O |  | < 1000 nM | 
34 | CC1(C)COC(c2cn([C@@H]3O[C@H](COc4ccc5ccc(N6CCC6)nc5c4)[C@@H](O)[C@@H]3F)c3ncnc(N)c23)=N1 | < 10 nM |  | 
35 | CNc1ccc2ccc(OC[C@H]3O[C@@H](n4cc(C(O)C5CC5)c5c(N)ncnc54)[C@H](O)[C@@H]3O)cc2n1 (stereo partly drawn) | < 10 nM |  | ≥ 10000 nM
36 | Cc1coc(-c2cn([C@@H]3O[C@H](COc4ccc5ccc(N6CCC6)nc5c4)[C@@H](O)[C@@H]3F)c3ncnc(N)c23)n1 |  | < 1000 nM | 1000 nM
37 | CN(C)Cc1cn([C@@H]2O[C@H](COc3ccc4ccc(N5CCC5)nc4c3)[C@@H](O)[C@@H]2F)c2ncnc(N)c12 | < 10 nM |  | 
38 | Nc1ncnc2c1ccn2[C@@H]1C[C@H](CCc2ccc3cncnc3c2)[C@@H](O)[C@H]1O | ≥ 1000 nM |  | 
39 | Nc1ccc2ccc(CC[C@H]3C[C@@H](n4ccc5c(N)ncnc54)[C@H](O)[C@@H]3O)cc2c1 | ≥ 1000 nM |  | 
40 | CNc1ccc2cc(F)c(CC[C@H]3C[C@@H](n4ccc5c(N)ncnc54)[C@H](O)[C@@H]3O)cc2n1 | ≤ 100 nM |  | 
41 | CCCNc1ncnc2c1ccn2[C@@H]1C[C@H](CCc2ccc3ccc(N)nc3c2)[C@@H](O)[C@H]1O | ≥ 1000 nM |  | 
42 | Nc1ccc2ccc(OC[C@H]3C[C@@H](n4ccc5c(N)ncnc54)[C@H](O)[C@@H]3O)cc2n1 | ≤ 1000 nM |  | 
43 | CNc1nc2cc(CC[C@H]3O[C@@H](n4cc(-n5cccn5)c5c(N)ncnc54)[C@@H](F)[C@@H]3O)ccc2s1 | ≤ 1000 nM |  | 
44 | Nc1cc(OC[C@H]2O[C@@H](n3ccc4c(N)ncnc43)[C@@H](F)[C@@H]2O)ccc1C(=O)N1CCNCC1 | ≥ 1000 nM |  | 

Row | Compound | IC50 [1] | IC50 (MOLM-13 [2]) | IC50 (MOLM-13 [3])
45 | Nc1ncnc2c1ccn2[C@@H]1C[C@H](CCc2ccc3c(OCC4CC4)ccnc3c2)[C@@H](O)[C@H]1O | ≥ 1000 nM |  | 
46 | CNc1ccc2ccc(OC[C@H]3O[C@@H](n4cc(-c5cc(C)n(C)n5)c5c(N)ncnc54)[C@@H](F)[C@@H]3O)cc2n1 | ≤ 100 nM |  | 
47 | Nc1ncnc2c1c(-c1ncco1)cn2[C@@H]1O[C@H](COc2ccc3ccc(N4CCC4)nc3c2)[C@@H](O)[C@@H]1F | < 10 nM | < 1000 nM | 
48 | Cn1ccc(-c2cn([C@@H]3O[C@H](CCC4CCNCC4)[C@@H](O)[C@@H]3F)c3ncnc(N)c23)n1 | ≤ 100 nM |  | 
49 | Nc1ncnc2c1ccn2[C@@H]1O[C@H](COc2ccc3cnc(N[C@H]4C[C@@H](N)C4)nc3c2)[C@@H](O)[C@@H]1F | ≤ 1000 nM |  | 
50 | Cn1ccc(-c2cn([C@@H]3O[C@H](COc4ccc5cnc(NC6CC6)nc5c4)[C@@H](O)[C@@H]3F)c3ncnc(N)c23)n1 | ≤ 100 nM |  | 
51 | CCc1nc2cc(OC[C@H]3O[C@@H](n4cc(-c5ccn(C)n5)c5c(N)ncnc54)[C@@H](F)[C@@H]3O)ccc2o1 | ≥ 1000 nM |  | 
52 | Nc1ccc2cc(OC[C@H]3C[C@@H](n4ccc5c(NCCc6ccccc6)ncnc54)[C@H](O)[C@@H]3O)ccc2n1 | ≥ 1000 nM |  | 
53 | Nc1ncnc2c1ccn2[C@@H]1C[C@H](CCc2ccc3cccnc3n2)[C@@H](O)[C@H]1O | ≥ 1000 nM |  | 
54 | CCn1ccc(-c2cn([C@@H]3O[C@H](COc4ccc5ccc(NC)nc5c4)[C@@H](O)[C@@H]3F)c3ncnc(N)c23)n1 | < 10 nM | < 1000 nM | 
55 | Cc1cc2c(N)ncnc2n1[C@@H]1C[C@H](COc2ccc3ccc(N)nc3c2)[C@@H](O)[C@H]1O | ≥ 1000 nM |  | 
56 | Cc1cc2c(N)ncnc2n1[C@@H]1C[C@H](CCc2ccc3nc(N)ccc3c2)[C@@H](O)[C@H]1O | ≥ 1000 nM |  | 
57 | O[C@@H]1[C@@H](CCc2ccc3[nH]ncc3c2)C[C@@H](n2ccc3c(NCCc4ccccc4)ncnc32)[C@@H]1O | ≥ 1000 nM |  | 
58 | CNc1nc2cc(OC[C@H]3O[C@@H](n4cc(-c5ccn(C)n5)c5c(N)ncnc54)[C@@H](F)[C@@H]3O)ccc2[nH]1 | < 10 nM |  | 
59 | CCCc1cn([C@@H]2C[C@H](CCc3ccc4ccc(N)nc4c3)[C@@H](O)[C@H]2O)c2ncnc(N)c12 | ≤ 1000 nM |  | 
60 | CNc1ccc2sc(CC[C@H]3O[C@@H](n4cc(-c5ccn(C)n5)c5c(N)ncnc54)[C@@H](F)[C@@H]3O)cc2n1 | < 10 nM | < 1000 nM | 
61 | Cc1ccn(-c2cn([C@@H]3O[C@H](COc4ccc5ccc(N6CC(O)C6)nc5c4)[C@@H](O)[C@@H]3F)c3ncnc(N)c23)n1 | < 10 nM |  | 
62 | CC(C)Nc1ccc2ccc(CC[C@H]3C[C@@H](n4ccc5c(N)ncnc54)[C@H](O)[C@@H]3O)cc2n1 | ≤ 100 nM |  | 
63 | Nc1ncnc2c1ccn2[C@@H]1C[C@H](CCc2cccc(=O)[nH]2)[C@@H](O)[C@H]1O | ≥ 1000 nM |  | 
64 | Nc1ccc2ccc(CC[C@H]3C[C@@H](n4cc(Br)c5c(N)ncnc54)[C@H](O)[C@@H]3O)cc2n1 | ≤ 100 nM |  | 
